Test results taken from article PMC4336329 (PLoS ONE, 2015).
Out of some 310,000 compounds screened, about 14,000 (4.5%) showed an effect of 50% or more. The effect is printed as a negative number. This is one part of the list.

target: human ether-à-go-go-related gene (hERG) potassium channel (human, UniProt Q12809); assay: primary screen, population patch clamp on CHO cells stably expressing hERG
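Also: peak tail current of the secondary pulse compared with the same well before compound.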

Sequence of human ether-à-go-go-related gene (hERG) potassium channel (Q12809 whole entry, looked up): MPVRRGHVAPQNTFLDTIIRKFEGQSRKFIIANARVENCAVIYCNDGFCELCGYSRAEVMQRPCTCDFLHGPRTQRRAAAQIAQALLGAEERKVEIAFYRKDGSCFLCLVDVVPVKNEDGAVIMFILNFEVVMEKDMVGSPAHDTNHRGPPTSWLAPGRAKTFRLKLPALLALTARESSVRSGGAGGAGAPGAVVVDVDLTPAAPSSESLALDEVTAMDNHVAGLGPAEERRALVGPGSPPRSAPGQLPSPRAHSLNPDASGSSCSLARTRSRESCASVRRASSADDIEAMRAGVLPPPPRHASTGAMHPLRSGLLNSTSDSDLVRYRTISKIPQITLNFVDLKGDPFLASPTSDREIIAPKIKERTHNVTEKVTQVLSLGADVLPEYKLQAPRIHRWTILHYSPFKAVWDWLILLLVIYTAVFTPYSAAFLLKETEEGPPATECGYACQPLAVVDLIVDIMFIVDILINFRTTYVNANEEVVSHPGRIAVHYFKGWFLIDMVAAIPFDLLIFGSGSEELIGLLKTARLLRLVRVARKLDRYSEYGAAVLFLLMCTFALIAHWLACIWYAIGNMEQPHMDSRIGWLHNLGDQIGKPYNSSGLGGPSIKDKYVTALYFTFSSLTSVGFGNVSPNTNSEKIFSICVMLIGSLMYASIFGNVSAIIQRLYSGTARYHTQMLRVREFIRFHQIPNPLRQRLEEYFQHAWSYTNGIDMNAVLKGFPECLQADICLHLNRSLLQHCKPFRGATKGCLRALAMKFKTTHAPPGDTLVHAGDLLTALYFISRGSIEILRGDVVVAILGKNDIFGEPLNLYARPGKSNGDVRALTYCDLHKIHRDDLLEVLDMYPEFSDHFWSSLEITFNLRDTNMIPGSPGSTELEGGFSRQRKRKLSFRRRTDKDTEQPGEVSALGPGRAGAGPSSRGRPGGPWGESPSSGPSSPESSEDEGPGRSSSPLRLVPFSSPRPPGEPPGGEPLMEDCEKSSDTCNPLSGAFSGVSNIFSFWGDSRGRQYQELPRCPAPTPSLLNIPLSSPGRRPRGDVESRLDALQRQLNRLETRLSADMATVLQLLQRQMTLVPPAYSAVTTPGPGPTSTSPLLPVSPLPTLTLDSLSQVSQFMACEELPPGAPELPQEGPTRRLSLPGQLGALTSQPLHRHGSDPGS

SMILES	hERG current change (%, negative = inhibition) at 10uM [%]
NC(=O)Cc1ccc(C(=O)c2ccc(F)cc2)s1	31.3
Oc1ccc(Cl)cc1Nc1nc(NCC2CCCO2)c2ccccc2n1 (stereo not shown)	23
C/C(=N\NC(=O)c1nnn(-c2nonc2N)c1CN(C)c1ccccc1)c1ccc(O)cc1	6.58
Cc1cccc2c(=O)cc(C)n(CC(N)=O)c12	7.6
COc1ccc(C(=O)NC(C)c2nnc(SCc3ccc(Cl)c(Cl)c3)n2C)cc1 (stereo not shown)	7.24
Cc1sc2ncn(CC(=O)N3CCC4(CC3)OCCO4)c(=O)c2c1C	9.55
CC1(C)N=C(N)N=C(N)N1c1ccc(Oc2ccc(Cl)cc2)c(Cl)c1.Cl	-4.13
O=C1CCCN1CCCNC(=S)Nc1ccccc1Cl	14.1
CCc1nnc(NC(=O)CSc2nnc3c(n2)[nH]c2ccccc23)s1	-22.4
C=CCN(CC=C)Cc1c(O)ccc2c(=O)c(-c3ccccc3)coc12	-16.9
COc1ccc(C(=O)N2CCCC(C(=O)c3ccccc3OC)C2)cc1OC (stereo not shown)	-4.99
CCN(CCCNC(=O)c1[nH]c(C)c(C(C)=O)c1C)c1ccccc1	-9.9
O=C(Cn1cnc2ccccc21)Nc1cccc(S(=O)(=O)N2CCCC2)c1	9.9
COc1ccc(/C=N/n2c(=O)[nH]c3c([nH]c4ccc(Cl)cc43)c2=O)cc1CN1CCCCC1	-13
Cc1cc(NS(=O)(=O)c2ccc(NC(=O)/C=C/c3ccccc3Cl)cc2)no1	18.9
COc1ccc(S(=O)(=O)N2CCN(CC(=O)Nc3cccc(OC)c3)CC2)cc1	-31.4
CC(C)(C)NC(=O)c1c(F)c(F)c(F)c(F)c1F	11.1
COc1ccc(-c2noc(CSc3nc(-c4ccccc4)cc(=O)[nH]3)n2)cc1	9.68
COc1ccc(N(C(=O)c2ccc(Cl)cc2)C2=CC3CCC(C2)N3C)cc1.Cl (stereo not shown)	-82
COc1ccc(NC(=O)N2CCCC2C(=O)Nc2ccccc2F)cc1 (stereo not shown)	6.62
O=C(Nc1ccc(F)cc1)c1ccc(COc2ccccc2)cc1	-5.29
CCCCCCCCN[C@H](C)[C@@H](O)c1ccc(SC(C)C)cc1	-67.4

SMILES	hERG current change (%, negative = inhibition) at 10uM [%]
CCn1c(=O)cc(OCC(=O)NCCCN2CCC(C)CC2)c2ccccc21	-8.39
Cc1ccc(C(=O)OCC(=O)N(CCc2ccccc2)Cc2ccccc2)cc1S(=O)(=O)N1CCOCC1	-15.5
Cc1c(C)n(Cc2ccc(F)cc2)c2ccc(C(=O)N3CCN(c4ccccn4)CC3)cc12	9.28
CCC(CC)c1nnc(NC(=O)/C=C/c2ccco2)s1	1.91
CC(=O)Nc1ccccc1NC(=O)C/C(C)=N/NC(=O)c1cccnc1	11.1
CCOc1ccccc1C(=O)NC(C(=O)Nc1ccccc1N1CCOCC1)C(C)C (stereo not shown)	-24.8
C=CCN1C(=O)C2(C(C(=O)OCC)=C(N)Oc3ccccc32)c2c1c1ccccc1oc2=O (stereo not shown)	-5.52
CCS(=O)(=O)Nc1ccc(C(=O)CC2(O)C(=O)Nc3ccccc32)cc1 (stereo not shown)	14.7
CCN1CCN(C(=O)CSc2cc(=O)n(C)c3ccccc23)CC1	4.53
CN(C)CCCN(C(=O)c1ccc(C(=O)c2ccccc2)cc1)c1nc2cc3c(cc2s1)OCCO3.Cl	-50
Cn1cnc2cc(NC(=O)c3cccs3)ccc21	14.6
COCC(=O)Nc1cc([N+](=O)[O-])ccc1C	2.06
N#Cc1ccc(Oc2ncccn2)cc1	16
O=C1OC(c2ccco2)=N/C1=C\c1ccc(-c2cccc(C(F)(F)F)c2)o1	-3.62
COc1cc(NC(=O)CSc2c3c(nc4ccccc24)CCC3)cc(OC)c1OC	-7.51
CCCSc1nnc(CNS(=O)(=O)c2ccc(C)cc2)n1C	8.4
O=C(CN1C(=O)C2C3CCC(C3)C2C1=O)OCC(=O)c1ccccc1 (stereo not shown)	13
COc1ccc(NC(=O)CSc2nc3ccccc3c(=O)n2CCCN2CCCCC2)c(OC)c1	-65.7
O=C(Oc1ccc(F)cc1)c1cccnc1	17.1
N#Cc1ccc2ccn(CC(=O)NC3CCCCC3)c2c1	4.53
C=CCn1c2c(c(=O)[nH]c1=S)CN(C(C)c1ccccc1)CN2 (stereo not shown)	21.6
CC(=O)NC(CC(=O)c1ccc([N+](=O)[O-])cc1)C(Cl)(Cl)Cl (stereo not shown)	-18.3

SMILES	hERG current change (%, negative = inhibition) at 10uM [%]
Cc1cc(C(=O)CN2C(=O)C(=O)N(C3CCCC3)C2=O)c(C)n1-c1ccc(F)cc1	-20.2
Cc1nc2ccc(C(=O)Nc3ccc4nc[nH]c4c3)cc2[nH]1	1.95
CC(=O)c1ccc(OCCCC(=O)N2CCN(S(=O)(=O)c3cccs3)CC2)cc1	-43.4
COc1ccccc1NS(=O)(=O)c1cn(C)cn1	18.3
Cc1ccc(-c2cc(=O)c3cc(Cl)ccc3[nH]2)cc1	8.68
COc1ccc(-c2[nH]c(-c3ccccc3)nc2SCC(=O)NC2CCCC2)cc1	-27.5
c1csc(-c2nc(-c3ccncc3)no2)c1	-1.91
COc1ccc(-c2noc(C3CCCN(C(=O)c4ccccc4C)C3)n2)cc1 (stereo not shown)	8.96
CC(CCc1ccccc1)NC(=O)COC(=O)c1ccc(NC(N)=O)cc1 (stereo not shown)	-6.05
Cc1nc2c(c(-c3ccccc3)c1C#N)C(=O)c1ccccc1-2	13.8
O=C(O)c1cccc2c3c([nH]c12)CCCC3	18
CCOC(=O)CC1(NC(=O)C2CCC(=O)N(Cc3ccccc3OC)C2)CCCCC1 (stereo not shown)	9.56
O=C(CSc1nc2ncc(Cl)cc2[nH]1)c1c[nH]c2ccccc12	18.1
CCc1ccc(C2C(C#N)=C(N)OC3=C2C(=O)CCC3)s1 (stereo not shown)	-6.73
COc1ccccc1NC(=O)COC(=O)C1CCN(/C=C/C(=O)C(F)(F)F)CC1	-49.6
O=c1c(C=Nc2cccnc2Cl)c(O)n(CCCCl)c(=O)n1C1CCCCC1	-15.4
CN(c1ccc(Cl)cc1)S(=O)(=O)c1nnc(NC(=O)C(C)(C)C)s1	17.8
Cc1cc(C)nc(NC(N)=NC2CCCCC2)n1	-25.8
CC(=O)N1CCc2cc(Br)cc(S(=O)(=O)N3CCCCC3)c21	7.18
CCCNS(=O)(=O)c1cccc2cccnc12	-6.32
CC(C)(C)C(=O)Nc1ccc(S(=O)(=O)N2CCC(c3nc4ccccc4[nH]3)CC2)cc1	12.7
COc1ccccc1C(=O)COC(=O)CN1C(=O)NC2(CCCC2)C1=O	12.8

SMILES	hERG current change (%, negative = inhibition) at 10uM [%]
Cc1cc(Nc2ccc(O)cc2)ccc1N	14.1
Cc1ccc(S(=O)(=O)CCC(=O)N2CCN(c3ccc([N+](=O)[O-])cc3)CC2)cc1	-70.8
COc1cccc(NC(=O)[C@@H](NC(=O)N2CCn3c2nc2ccccc23)C(C)C)c1	-0.0266
COc1ccc(NC(=O)N2CCCC(C(=O)Nc3cccc(C)c3C)C2)cc1 (stereo not shown)	-9.89
CC(=O)Nc1ccc(S(=O)(=O)N2CCN(C(=O)c3ncoc3-c3ccccc3F)CC2)cc1	11.6
COc1ccc(S(=O)(=O)N2c3cc(Cl)ccc3Oc3nc4ccccc4nc32)cc1	2.25
COc1ccccc1Oc1cn[nH]c1-c1ccc(O)cc1O	2.81
COC(C(=O)N/N=C(\C)c1ccc(O)cc1)c1ccccc1 (stereo not shown)	0.0978
CCN1C(=O)[C@H]2[C@@H](c3ccc(-c4ccc(C(C)=O)cc4)cc3)N3CCC[C@@]3(C(=O)OC)[C@H]2C1=O.O=C(O)C(F)(F)F	-5.42
COc1ccccc1C1NC(c2ccccc2OC)C(C)C(=O)C1C (stereo not shown)	-22.5
COC(=O)C1=C(C(C)=O)C(c2ccc(C(=O)OC)cc2)n2nnnc2N1 (stereo not shown)	10.9
CC(=O)c1cccc(NC(=O)[C@@H](NC(N)=O)C(C)C)c1	33.1
O=C(CCNC(=O)c1ccco1)Nc1ccc(OC(F)F)c(Cl)c1	-26.8
CCOC(=O)c1ccc(-n2c(CCC(=O)O)ccc2-c2cccs2)cc1	13.4
CC(=O)OCC(=O)c1c[nH]c2ccccc12	11.7
Cn1c(=O)[nH]c(=O)c2c1nc(N1CCOCC1)n2CC(=O)c1ccccc1	9.68
O=C(NNC(=S)Nc1ccccc1)c1cccc(Br)c1	4.84
COc1cc(/C=C/C(=O)O)cc(S(=O)(=O)Nc2ccc3cn[nH]c3c2)c1OC	9.74
CC(C)c1ccc(NC(=O)COc2nnc(-c3cccs3)c(-c3cccs3)n2)cc1	15.6
N#Cc1ccccc1CSC1=NCCS1	23
COc1cc(/C=N/NC(=O)c2ccccn2)ccc1OC(=O)c1ccc(Br)cc1	1.06
COC(=O)[C@@H]1C[C@@H]2CC[C@@H](O)C[C@@H]2N1Cc1ccc(OC)cc1	0.551
